Values marked as one replicate rest on one cluster of the flow cell; about a third of the high ones do not repeat.
Tested on: ATP
Assay: switch fluorescence ratio, 500 uM ATP over buffer (Cy3 cluster intensity, sum of 5 cycles each) (fold (ratio)); higher = stronger signal-on switching upon ATP binding; sequences stand for … in TCGTCGGCAGCGTCAGATGTGTATAAGAGACAGTTTTTTTTTTTTTTTTTTTTTTTTT…TC
Details: aptamer strand: ATP DNA aptamer (quencher-CACCTGGGGGAGTATTGCGGAGGAAGG + anchor), 100 nM annealed; ATP concentration: 500 uM; one replicate
Outline: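 The quencher-labelled ATP aptamer, at 100 nM, was annealed to Cy3-labelled switching-strand clusters on a modified Illumina MiSeq flow-cell. The clusters were imaged in selection buffer, then after 15 min with 500 uM ATP at 22 °C, and this buffer/ATP cycle ran five times with NaOH stripping and re-annealing between runs. Per-cluster fluorescence ratios, summed target-cycle over summed buffer-cycle Cy3 intensity, were averaged per switch-domain sequence. Clusters outside 100-1000 RFU were excluded.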
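Further: ATP exposure 15 min at 22 °C before imaging.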

Row | Sequence | switch fluorescence ratio
1 | TCTAGCTTGC | 1.05
2 | TCTAGGCTCG | 0.981
3 | TCTAGGGGTC | 0.958
4 | TCTAGTGCAC | 1.03
5 | TCTAGTGCGT | 0.982
6 | TCTAGTTGCG | 1.03
7 | TCTATAACAC | 1.04
8 | TCTATACAAA | 0.941
9 | TCTATATGG | 1.04
10 | TCTATATGTC | 1.03
11 | TCTATCAAGT | 1.01
12 | TCTATCGGGG | 0.972
13 | TCTATCGTCA | 1.04
14 | TCTATGAGAG | 0.99
15 | TCTATTGTTT | 0.992
16 | TCTCAACAAT | 1.6
17 | TCTCAACCTT | 1.1
18 | TCTCACATTG | 0.987
19 | TCTCACGCGT | 1.05
20 | TCTCAGCTAG | 1.11
21 | TCTCATAAAG | 1.02
22 | TCTCCAAGCG | 1.13
23 | TCTCCCCCAC | 2.41
24 | TCTCCTTGCT | 1.16
25 | TCTCGAAATG | 1.08
26 | TCTCGCCGAA | 1.06

Row | Sequence | switch fluorescence ratio
27 | TCTCGGATTT | 1.01
28 | TCTCGTCGCC | 1.03
29 | TCTCTAAGGT | 1
30 | TCTCTAGT | 1.06
31 | TCTCTCCGTA | 1.61
32 | TCTCTCTGTG | 1.01
33 | TCTCTGGCTA | 1.51
34 | TCTCTGTGGT | 1.01
35 | TCTCTTATTA | 1.01
36 | TCTCTTGCC | 1.04
37 | TCTCTTTCGT | 1.03
38 | TCTGAAATGT | 0.965
39 | TCTGAACTCA | 1.06
40 | TCTGAAGCCG | 1.05
41 | TCTGAAGCTG | 1.26
42 | TCTGAGACTG | 1.03
43 | TCTGAGCACA | 1.26
44 | TCTGAGCGCA | 1.73
45 | TCTGAGCGCT | 1.07
46 | TCTGATAGTC | 1.03
47 | TCTGATGTC | 0.96
48 | TCTGCACTGA | 1.03
49 | TCTGCAGCCG | 1.02
50 | TCTGCCGACC | 1.27
51 | TCTGCTAGCA | 1.02
52 | TCTGGAAGTA | 1.04

Row | Sequence | switch fluorescence ratio
53 | TCTGGAATCC | 2.38
54 | TCTGGAGGCA | 1.09
55 | TCTGGATGAC | 1.06
56 | TCTGGTGTTA | 1
57 | TCTGTATGTG | 0.992
58 | TCTGTATTAG | 1.04
59 | TCTGTCAGAA | 0.969
60 | TCTGTCCGC | 1.68
61 | TCTGTGAAAC | 1.03
62 | TCTGTGCTTG | 1.02
63 | TCTGTTATGT | 1.03
64 | TCTTAAATCA | 1.02
65 | TCTTAACATA | 1.03
66 | TCTTAGCTG | 1.04
67 | TCTTATGACT | 1
68 | TCTTATTATT | 0.982
69 | TCTTCATACA | 1
70 | TCTTCATAGC | 1.02
71 | TCTTCCGTCA | 1.81
72 | TCTTCGGCGT | 0.973
73 | TCTTCGTGCG | 1.02
74 | TCTTCTTGAC | 1.03
75 | TCTTCTTTTG | 1.03
76 | TCTTCTTTTT | 1.03
77 | TCTTGCGGAA | 1.21
78 | TCTTGGGCAA | 1.85

Row | Sequence | switch fluorescence ratio
79 | TCTTGGTACT | 0.968
80 | TCTTGGTCAT | 1.03
81 | TCTTGTACGC | 1.03
82 | TCTTGTCCTA | 0.993
83 | TCTTGTTTCA | 0.976
84 | TCTTTAATAC | 1.83
85 | TCTTTATCG | 0.997
86 | TCTTTCAGGC | 1.01
87 | TCTTTGCGGT | 0.999
88 | TCTTTGTCTG | 1.02
89 | TCTTTTGATA | 0.989
90 | TGAAAAAATG | 0.966
91 | TGAAAACGTT | 1.02
92 | TGAAAATATG | 0.988
93 | TGAAAATCGT | 0.995
94 | TGAAACGCTA | 1.2
95 | TGAAAGAGT | 1.02
96 | TGAAAGGTAA | 1.02
97 | TGAAAGTT | 1.02
98 | TGAAATCCCG | 0.983
99 | TGAAATGAGA | 0.991
100 | TGAAATTAGG | 0.971
101 | TGAACAATTA | 1

— the supplement of paper PMC10126150
